# Several values for one entry are separate records, joined by “and”; a condition that tells them apart may be missing. Identical values can stand only once. Among all 350,000 compounds or so, about 9,900 (2.8%) were called active. Inconclusive results, whose numbers are uncertain, are shown with a selection of clear calls. Calls come from the whole dose curve; as a rule, active = well fitted activation curve with a large enough effect; inconclusive = small, poorly fitted or top-dose-only effect; inactive = no such curve, though single readings can be large or run the other way. A potency beside an inconclusive call is a rough fit, not a confirmed value.
# Assay: A quantitative high throughput screen for small molecules that induce DNA re-replication in MCF 10a normal breast cells. For activity, positive = re-replication: % of control where 0% means no effect. Note: nearly all actives have a fitted effect of over 50% in size.
# Conditions: MCF 10A DNA re-replication, Hoechst nuclear intensity, 48 h; activity, positive = re-replication: at 46.1 µM (top of the series)
# Potency is the fitted concentration of half-maximal effect; tags give direction and shape of the fitted curve.
SMILES,Potency,"activity, positive = re-replication"
Cc1sc2ncnc(N3CCC(C(=O)Nc4ccc(C#N)c(Cl)c4)CC3)c2c1C,active: 13 µM,
COC(=O)c1ccc(NC2=C(Cl)C(=O)OC2OC(=O)c2ccccc2)cc1 (stereo not given),"inconclusive: 25.9 µM [activator, single point]",
CCCCN1C(=O)NC(=O)C2(Cc3c(nc4c(C)cccn4c3=O)N3CCc4ccccc4C32)C1=O (stereo not given),"inconclusive: 23.1 µM [activator, single point]",
COCCNC(=O)c1c(NC(=O)c2ccco2)n(Cc2ccccc2)c2nc3ccccc3nc12,"inconclusive: 11.2 µM [activator, partial curve, poor fit]",
COc1ccc(C2NCc3ccc4c(c3-n3cccc32)OCO4)cc1O (stereo not given),active: 4.11 µM,
COc1cc2c(c(OC)c1OC)-c1ccc(SC)c(=O)cc1C(NC(C)=O)CC2 (stereo not given),,inconclusive: 104% [activator]
CCCCCC1(C(C)C)C(=O)NC(=S)NC1=O,,inactive: 0.371%
C[n+]1ccc(-c2ccncc2)cc1,,inactive: 2.73%
C[C@]12O[C@H](C[C@]1(O)CO)n1c3ccccc3c3c4c(c5c6ccccc6n2c5c31)CNC4=O,"inconclusive: 0.335 µM [activator, full curve, poor fit]",
COc1cc(C)cc(CN2CC=C(c3ccccc3)CC2)c1O,"inconclusive: 29.1 µM [activator, single point]",
CCOc1ccc2nc(N3CCC(C(=O)N4CCC5(CC4)OCCO5)CC3)sc2c1,,inactive: 12.9%
Cn1nnc(CC[N+](C)(C)C)n1,"inconclusive: 29.1 µM [activator, partial curve, poor fit]",
CN1C[C@H](CO)C[C@@H]2c3cccc4[nH]cc(c34)C[C@H]21,,inactive: 13.9%
CN(C)c1ccc(/C=C2\C(=O)NC(=O)N(CCc3ccc(F)cc3)C2=O)cc1,"inconclusive: 25.9 µM [activator, single point]",
Brc1ccc(-c2ccccc2)cc1,"inconclusive: 0.164 µM [activator, full curve, poor fit]",
O=c1c2ccccc2nc(N2CCCC2)n1-c1ccccc1,,inactive: 16.7%
COc1cccc(N2CCN(Cc3cccc(Cl)c3)CC2)c1,"inconclusive: 29.1 µM [activator, partial curve, poor fit]",
COC(=O)C1=C(c2cccc(OC)c2OC)C[C@@H]2CC[C@H]1N2C(=O)NCc1cccc2ccccc12,"inconclusive: 29.1 µM [activator, single point]",
CN(C)C(Cc1ccccc1)C(=O)c1c[nH]c2ccccc12 (stereo not given),,inactive: -4.02%
C[C@]12CC[C@H](O)CC1=CCC1C2CC[C@]2(C)C(=O)[C@H](Br)CC12 (stereo not given in full),"inconclusive: 23.1 µM [activator, single point]",
C[C@]12CC[C@H]3[C@@H](CCC4=CC(=O)CC[C@@]43C)[C@@H]1CC[C@@H]2C(=O)CO,"inconclusive: 3.26 µM [activator, single point] and inconclusive: 32.6 µM [activator, partial curve, poor fit]",
O=c1[nH]c(=O)n(-c2cccc(F)c2)c(O)c1/C=C1\C=Nc2ccccc21,"inconclusive: 29.1 µM [activator, single point]",

SMILES,Potency,"activity, positive = re-replication"
COc1ccc(OCC(=O)N2CCCC(N3CCN(c4ccccc4C)CC3)C2)cc1 (stereo not given),,inactive: 1.33%
COC(=O)c1ccc(N2C(=O)CC(N3CCC(n4c(=O)[nH]c5ccccc54)CC3)C2=O)cc1 (stereo not given),,inactive: -8.41%
Cc1nn(Cc2ccc(Cl)cc2Cl)c(Cl)c1C(=O)Nc1ccc(OC(F)F)cc1,"inconclusive: 16.4 µM [activator, partial curve]",
Clc1ccc(Cl)cc1,,inactive: -1.17%
CCOC(=O)c1c(C)n(COCCO)c2ccc(O)cc12,"inconclusive: 23.1 µM [activator, partial curve, poor fit]",
CCn1c(O)c(C(=O)CC2NCCc3ccccc32)c(=O)n(CC)c1=S (stereo not given),active: 20.6 µM,
Cc1cccc2c(CCN)c[nH]c12,"inconclusive: 20.6 µM [activator, single point]",
CC(=O)O[C@@H]1CC[C@]2(C)C3CC[C@@]4(C)C(C[C@@H](O)[C@@H]4O)C3[C@@H](OC(C)=O)C[C@H]2C1 (stereo not given in full),,inactive: -11.1%
CC1CCCCN1CC(O)c1c[nH]c2ccccc12 (stereo not given),,inactive: -9.35%
Clc1ccc(-c2nc3ccc(Cl)cn3c2CN2CCCCC2)cc1,"inconclusive: 20.6 µM [activator, partial curve, poor fit]",
COc1ccc(C(=O)Cn2c(NCCCl)nc3ccccc32)cc1,"inconclusive: 1.16 µM [activator, single point]",
CCCCN1CCC(O)(c2ccccc2)C(C(=O)c2ccccc2)C1 (stereo not given),"inconclusive: 17.8 µM [activator, single point]",
Cc1cccc(N2CCN(Cc3ccc4c(c3)OCO4)CC2)c1C,"inconclusive: 18.4 µM [activator, partial curve, poor fit]",
Cc1ccc(OCC(=O)N2CCN(Cc3cccnc3)CC2)cc1,,inactive: 3.86%
COc1ccc2c(c1O)-c1cccc3c1[C@@H](C2)N(C)CC3,"inconclusive: 4.11 µM [activator, single point]",
CC[C@@H](CO)C1CC2NC3CC4(c5ccccc5N(C)[C@@H]24)C(O)C31 (stereo not given in full),,inactive: 0.0328%
CCCOP(=O)(O)c1c([N+](=O)[O-])cc(C(F)(F)F)cc1[N+](=O)[O-] (tested in a mixture with another compound),"inconclusive: 0.058 µM [activator, full curve, poor fit]",
CCCCCn1c(=O)c(C(=O)NCc2ccncc2)c(O)c2ccccc21,"inconclusive: 16.4 µM [activator, single point]",
CNC(=O)OCCc1n(C)cc[n+]1C,"inconclusive: 23.1 µM [activator, partial curve, poor fit]",
CN(C)CCN(CC1CCCN(Cc2ccccc2F)C1)C(=O)Cc1ccccc1F (stereo not given),"inconclusive: 29.1 µM [activator, partial curve, poor fit]",
COCCCNC(=O)Cn1cc(/C=C2\C(=O)NC(=O)N(c3ccccc3F)C2=O)c2ccccc21,"inconclusive: 32.6 µM [activator, partial curve, poor fit]",
CCN(CC)c1ccccc1,"inconclusive: 29.1 µM [activator, single point]",

SMILES,Potency,"activity, positive = re-replication"
CN(C)c1ccc(/C=C/[N+](=O)[O-])cc1,,inactive: -0.22%
COc1cc2c(cc1OC)[C@@H]1C(=O)c3ccc4c(c3O[C@@H]1CO2)C[C@H](C(C)C)O4,"inconclusive: 29.1 µM [activator, single point]",
CCCCOc1nc2ccccc2c(=O)n1-c1ccccc1,"inconclusive: 9.2 µM [activator, partial curve]",
CC(CC(C)(C)N1CC1)=NNC(=O)Nc1cccc2ccccc12,"inconclusive: 29.1 µM [activator, single point]",
Oc1ccc(C2=CCNCC2)cc1O,,inactive: -1.81%
CC(C)Cc1nnc(NC(=O)CCC(=O)N2CCN(CCOC(c3ccccc3)c3ccccc3)CC2)s1,,inactive: 13.3%
COc1ccc2c3c1O[C@H]1C[C@@H](O)C=C[C@@]31CCN(C)C2,"inconclusive: 5.8 µM [activator, partial curve, poor fit]",
CCOC(C(=O)OCCCN(CC)CC)(c1ccccc1)c1ccccc1,"inconclusive: 11.6 µM [activator, partial curve, poor fit]",
O=c1c2ccccc2nc(-c2ccccc2)n1-c1ccc(O)cc1,"inconclusive: 18.4 µM [activator, partial curve, poor fit]",
COC(=O)C1=C(c2ccc(OCc3ccccc3)cc2)C[C@@H]2CC[C@H]1N2C(=O)NCCCc1ccccc1,"inconclusive: 29.1 µM [activator, single point]",
O=C(CNC(=O)c1cccs1)NCC(=O)OCC(=O)c1ccc([N+](=O)[O-])cc1,"inconclusive: 29.1 µM [activator, single point]",
O=c1c2ccccc2nc(/C=C/c2ccc3c(c2)OCO3)n1-c1ccccc1,"inconclusive: 25.9 µM [activator, single point]",
O=C(Cc1ccccc1)N1CCN(Cc2ccc(F)cc2)CC1,"inconclusive: 7.31 µM [activator, partial curve, poor fit]",
CCc1ccc(CN2CCN(C(=O)Cc3ccccc3)CC2)cc1,"inconclusive: 29.1 µM [activator, single point]",
C[C@H](N)[C@@H](O)c1ccccc1,,inactive: -5.73% [at 20.6 µM]
Cn1c(O)c(/C=N/NC(=O)c2ccncc2)c(=O)[nH]c1=S,,inactive: -0.419%
COC(=O)C1=C(c2cccc(OCc3ccccc3)c2)C[C@@H]2CC[C@H]1N2C(=O)NCc1ccc(Br)cc1,"inconclusive: 5.17 µM [activator, full curve, poor fit]",
Cc1nn(-c2nccs2)c2c1C(=O)CC(C)(C)C2Br (stereo not given),"inconclusive: 2.59 µM [activator, partial curve, poor fit]",
Nc1nonc1C(=O)N/N=C/c1ccc([N+](=O)[O-])o1,"inconclusive: 16.4 µM [activator, single point]",
CC(=O)O[C@@]12CO[C@@H]1C[C@@H](O)[C@@]1(C)C(=O)[C@H](O)C3=C(C)[C@@H](OC(=O)[C@H](O)[C@@H](NC(=O)c4ccccc4)c4ccccc4)C[C@@](O)([C@@H](OC(=O)c4ccccc4)C12)C3(C)C (stereo not given in full),,inconclusive: 119% [activator]
COc1ccc(/C=C/C(=O)NC(=S)N2C[C@H]3C[C@H](C2)c2cccc(=O)n2C3)cc1,"inconclusive: 0.0058 µM [activator, full curve, poor fit]",
